The results in this text go back to PubChem BioAssay AID1240 (Sanford-Burnham Center for Chemical Genomics, 2008).

About 800 (1.6%) of roughly 50,000 compounds showed an effect of 50% or more. Some of the results follow.

In this assay the target is Bcl-2-like protein 10 (Homo sapiens) (UniProt Q9HD36). Put plainly: TR3 peptide-Bcl-B binding displacers, biochemical primary FP assay, phenotype converters (AID 1240).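 Further: 0% = Bcl-B with tracer peptide and DMSO and 100% = tracer peptide lacking Bcl-B.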 As to conditions: GST-Bcl-B / FITC-TR3 peptide fluorescence polarization; stronger effect = higher value; compound at 3.75 mg/L. In general terms: Polarisation of emitted light reports the rotation of a fluorescent probe.
Chain of UniProt Q9HD36 (Q9HD36 whole entry, looked up): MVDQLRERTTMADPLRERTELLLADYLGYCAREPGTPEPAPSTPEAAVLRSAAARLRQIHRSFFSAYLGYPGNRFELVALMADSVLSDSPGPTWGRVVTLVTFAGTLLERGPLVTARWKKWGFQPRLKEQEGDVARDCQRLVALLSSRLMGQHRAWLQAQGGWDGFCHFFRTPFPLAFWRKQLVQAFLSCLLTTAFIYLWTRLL
For the compound `COc1cccc(OCC(=O)Nc2ccc3c(c2)OCCO3)c1`, the displacement worked out at 10.9%. In the case of `O=c1cc(=O)n(-c2ccccc2)c2ccccc12` it was -0.3%. In the case of `COc1ccccc1CC(=O)n1nnc2ccccc21` it was -5.7%. The same measure for `COc1ccc(NC(=O)c2ccc(CN3CCN(Cc4ccccc4)CC3)cc2)cc1OC`: 27%; for `CC(=O)N(C1=C(Nc2ccccc2)C(=O)c2ccccc2C1=O)c1ccccc1`: 2.3%; for `O=C(OCCN1CCOCC1)c1ccc(O)cc1O`: 7.5%. Take `COc1ccc(C(=O)N/C(=C/c2ccc(-c3cc(Cl)ccc3Cl)o2)C(=O)NCCCO)cc1`: the displacement came out at 8.5%. The same measure for `CCc1cccc(C)c1NC(=O)CSc1nnnn1-c1ccccc1`: -10.6%; for `O=C(Cn1c(C(F)(F)F)nc2ccccc21)c1ccc(Cl)cc1`: 11.4%; for `CC(C)Oc1ccc(C(=O)Nc2nc3ccccc3s2)cc1`: -14.6%. Turning to `Cc1ccc(NC(=O)c2ccco2)c(C)c1`, the displacement is -9.1%. In the case of `C/C(=N\NC(=O)c1cc(-c2ccccc2)n[nH]1)c1ccc(Br)cc1` it was -4.7%; in that of `COc1ccc(/C=N/Nc2nc3cc(C)ccc3cc2C)cc1OC`, -9.9%; in that of `COC(=O)c1cc(C(=O)Nc2ccc(C(C)=O)cc2)cc([N+](=O)[O-])c1`, 15.4%. The same measure for `CCOC(=O)CC(=O)c1sc2nccc(N(C)C)c2c1N`: 4.6%; for `Cc1ccc(OCC(=O)NCc2ccc(Cl)cc2)c(Br)c1`: -4.5%. In the case of `CCC(C)NC(=O)CN(c1ccccc1OC)S(=O)(=O)c1ccccc1` (stereo unspecified) it was -1.7%; in that of `CCOCCOC(=O)c1ccc(NC(=O)Nc2ccc(Cl)cc2)cc1`, -4%; in that of `CC(=O)c1cccc(NC(=O)c2ccc(-c3cc(Cl)ccc3Cl)o2)c1`, -8.8%. `COc1cc(C2N(Cc3ccccc3)CCN2Cc2ccccc2)ccc1O`: the displacement was 5%. Turning to `CCOC(=O)/C=C/COc1ccc2oc(C)c(C(=O)OC)c2c1`, the displacement worked out at 3.9%. Regarding `O=C(N/N=C/c1ccc(O)cc1)C(O)C(O)C(=O)N/N=C/c1ccc(O)cc1` (stereo unspecified), the displacement was -1%.

For `c1ccc(CSc2nc3ccccc3s2)nc1`, the displacement is -4.3%.

As to `CCOc1ccc(Nc2ccc3noc4c3c2C(=O)c2ccccc2-4)cc1`, the displacement is -2%. The same measure for `CCCCOc1ccc(C(=O)N2CCCc3ccccc32)cc1`: 0.7%; for `O=C(O)C1CCCCN1C(=O)c1ccccc1` (stereo unspecified): -8%; for `CC(Oc1cccc(Cl)c1)C(=O)Nc1ccc(C(N)=O)cc1` (stereo unspecified): 21.6%. In the case of `CCOC(=O)c1ccccc1NC(=O)CCC1CCCC1` it was 3.3%. The same measure for `O=C(Nc1cccc(Cl)c1)/C(=C/c1cccnc1)NC(=O)c1cccc(Br)c1`: -5.6%.

In the case of `O=C(c1cccc(F)c1)N1CCN(Cc2cccc(F)c2)CC1`, the displacement was -19.6%. In the case of `O=C(NCc1cccs1)c1cnn2c1NC(c1ccc(Br)cc1)CC2C(F)(F)F` (stereo unspecified) it was 0.1%; in that of `COc1ccc(C2=C/C(=C/c3ccco3)C(=O)O2)cc1`, 40.1%; in that of `COc1ccc(-c2cc(C(F)(F)F)n3ncc(C(=O)NCc4ccco4)c3n2)cc1`, 30.7%. Consider `COc1ccc(/C=C2\C(=O)NC(=O)N(c3cc(C)cc(C)c3)C2=O)cc1`, for which the displacement stood at 5.9%. In the case of `CC[N+]1=C(/C=C/Nc2ccccc2)SCC1` it was -0.3%; in that of `COc1cc(NC(=O)c2cccc(Br)c2)ccc1NC(=O)c1cc2ccccc2o1`, 3.2%. In the case of `CCN(CC)c1ccc(Nc2nc(-c3sc(C)nc3C)cs2)cc1` it was 13.3%; in that of `Cc1cc(=O)[nH]c(Sc2nnc(-c3ccccc3)c3ccccc23)n1`, -5.4%; in that of `Oc1c(C=Nc2cccc3nsnc23)sc2ccccc12`, -12.3%. The same measure for `COc1ccc(-c2cc(C(=O)Nc3ccc(Br)cc3)c3ccccc3n2)c(OC)c1`: -8.9%. Take `O=C(Nc1ccccc1C(=O)Nc1ccc(Br)cn1)c1ccccc1Cl`: the displacement is -14%. The same measure for `CCCOC(=O)C1=C(C)NC(=O)NC1c1ccccc1Cl` (stereo unspecified): 6.4%. The same measure for `O=S(=O)(c1ccc2c(c1)OCCO2)N1CCCCC1`: -13.4%; for `COc1cc(OC)c(OC)cc1/C=N/NC(=O)c1cccnc1`: -0.8%. Take `CCOc1ccc(N(CC(=O)NCCSc2ccccc2)S(C)(=O)=O)cc1`: the displacement came out at 11.4%. In the case of `O=C(Nc1ccc(/C=C/c2ccccc2)cc1)c1ccc(F)cc1` it was 12.9%; in that of `COc1ccc(C(=O)N2CCN(Cc3cccnc3)CC2)cc1OC`, -20.8%; in that of `COc1ccc(/C=N\OCC(=O)Nc2oc(-c3ccccc3)c(-c3ccccc3)c2C#N)cc1`, -4.5%. Consider `CCOC(=O)c1c[nH]c2ccc(OCC)cc2c1=O`, for which the displacement worked out at 7.9%. The same measure for `CC(=O)N1CCN(c2ccc(C(=O)c3cccc(F)c3)cc2)CC1`: 3%; for `Cc1ccc(-n2c(C)cc(/C=N/NC(=O)CN3CCOCC3)c2C)c(C)c1`: -47.1%; for `O=C(NCCN1CCOCC1)/C(=C/c1ccc(Cl)cc1)NC(=O)c1ccccc1`: -5.9%. The same measure for `CC(=O)N1c2ccc3ccccc3c2C2C=CCC2C1c1ccc(Br)cc1` (stereo unspecified): 31.4%.

For the compound `CCCOc1ccc(C(=O)Nc2ccc(O)cc2C(=O)O)cc1`, the displacement was -16.3%. Turning to `COc1ccc(/C=C2\SC(=O)N(CC(=O)Nc3ccccc3Cl)C2=O)cc1`, the displacement amounted to 5.7%. In the case of `O=C(COc1ccc(C2CCCCC2)cc1)Nc1ccccc1C(=O)O` it was -17.1%. The same measure for `COc1cc(C=C2C(=O)NC(=S)NC2=O)ccc1OCCOc1ccc(C(C)(C)C)cc1`: 4.4%.

For the compound `N/C(=N\OC(=O)CCc1ccccc1)c1cccnc1`, the displacement turned out to be 0.9%. The same measure for `Cc1ccc(NCC(O)COc2ccc(OCC(O)CNc3ccc(C)c(C)c3)cc2)cc1C` (stereo unspecified): 2%; for `COc1ccc(-c2nc3ccccc3c(=O)n2-c2nc3ccccc3n2C)cc1`: -9.8%; for `CCOC(=O)c1ccc(N2NC(=O)/C(=C/c3cc(OC)c(O)c(OC)c3)C2=O)cc1`: 10.2%. In the case of `COc1cc(/C=N/NC(=O)c2ccncc2)ccc1OC(=O)c1cccc(F)c1` it was 17.1%. In the case of `O=C(Nc1nnc(-c2ccco2)s1)c1cccc2ccccc12` it was 15.6%; in that of `CC(C)c1ccc(NC(=O)c2ccc(N(C)S(=O)(=O)c3ccccc3)cc2)cc1`, 8.4%; in that of `N#C/C(=C\c1ccc(-c2ccc(Cl)cc2)o1)c1ccc(Cl)cc1`, 123%.

`CCc1ccc(/C(C)=N/Nc2nc(-c3ccccc3)nc(C)c2C)cc1`: the displacement is -15.5%.

Consider `CCOc1ccc(N2C(=O)/C(=C/c3ccccc3C(=O)O)SC2=S)cc1`, for which the displacement was -6.1%. The same measure for `O=C(CN(Cc1ccccc1)S(=O)(=O)c1ccccc1)Nc1ccc(Oc2ccccc2)cc1`: 9.8%; for `COc1cc(OC)c(OC)cc1/C=N/NC(=O)c1cc(C)[nH]n1`: -9.4%. Consider `COC(=O)c1c(C)oc2ccc(OCC(=O)c3ccc(Br)cc3)cc12`, for which the displacement was 13.6%. In the case of `COc1ccc(S(=O)(=O)N(CC(=O)NC2CCCCC2)c2cc(C)cc(C)c2)cc1OC` it was -0.9%; in that of `O=C(Cc1ccccc1)Nc1ccc(Br)cn1`, -1.2%; in that of `COc1ccc(NC(=O)C2c3ccccc3Oc3ccccc32)cc1`, 0.9%.

Turning to `CCCC(C)NC(=O)c1ccc([N+](=O)[O-])cc1` (stereo unspecified), the displacement was found to be 1.4%.

In the case of `COc1cccc(NC(=S)NC(=O)c2cccs2)c1`, the displacement was -2.1%. In the case of `COc1cc(C2C(C(=O)OCCOc3ccccc3)=C(C)NC3=C2C(=O)CC(C)(C)C3)cc(Cl)c1O` (stereo unspecified) it was -5.4%; in that of `CCOC(=O)c1c(NC(=S)NC(=O)c2ccccc2)sc2c1CCC(C)C2` (stereo unspecified), 14.8%. The same measure for `CCOC(=O)c1ccc(NC(=O)c2ccc3c(c2)OCO3)cc1`: -1.6%; for `O=C(Nc1ccc(Cc2ccncc2)cc1)c1cc(F)c(F)cc1Cl`: -1.1%; for `COc1ccc(NC(=O)c2nn3c(c2Cl)NC(c2ccco2)CC3C(F)(F)F)cc1OC` (stereo unspecified): -1.6%.

Consider `CC(=O)Nc1ccc(S(=O)(=O)Nc2cccc(C(=O)Nc3nccs3)c2)cc1`, for which the displacement is -17.4%.

`O=C(/C=C/c1ccc(Br)cc1)NC(=S)NCCCN1CCOCC1`: the displacement worked out at 12.4%. The same measure for `CC(=O)c1ccc(OC(=O)c2ccc([N+](=O)[O-])cc2)cc1`: -3.5%; for `CC(=O)CC(=O)Nc1ccc2ccccc2c1`: 5.6%; for `Cc1ccc(NC2=NS(=O)(=O)c3cc([N+](=O)[O-])ccc32)cc1`: 13.1%. Regarding `CC(C)C(=O)Nc1ccc(O)cc1C(=O)O`, the displacement came to 8.5%.

For `Cc1ccccc1OCC(=O)Nc1nc(-c2ccc(Br)cc2)cs1`, the displacement is -1.9%.

Take `OCCNCCOc1ccc(Cl)cc1`: the displacement is -5.7%. With `O=c1c(-c2ccc(Cl)cc2Cl)coc2c(CN3CCCCC3)c(O)ccc12`, the displacement was -18.9%. In the case of `O=C1c2ccccc2C(=O)N1c1ccc2nc(SCc3ccc([N+](=O)[O-])cc3)sc2c1` it was -17.4%.

As for `COc1cc(C(=O)n2nc(C)cc2C)cc(OC)c1OC`, the displacement turned out to be 3.5%. Regarding `CCN=C(Nc1ccc2c(c1)OCO2)SC1CC(=O)N(c2cccc(Cl)c2)C1=O` (stereo unspecified), the displacement amounted to 4.8%.

On to `COc1ccc(CSc2nc(C)cc(=O)[nH]2)cc1`, for which the displacement is 1.6%.

In the case of `COc1ccc2ccccc2c1-c1cc(C(=O)NN)[nH]n1`, the displacement is 6.8%.

For `CC(=O)Nc1cc([N+](=O)[O-])c(N(C)S(=O)(=O)c2ccccc2)c2ccccc12`, the displacement is 0.5%. In the case of `CCOC(=O)c1cc2n(n1)C(C(F)(F)F)CC(c1ccco1)N2` (stereo unspecified) it was -0.1%; in that of `CC(=O)NC1=NC(=O)/C(=C\c2ccc(Cl)c(Cl)c2)S1`, -13.5%. The same measure for `O=C(NCC1(c2ccccc2)CCOCC1)C1(c2ccccc2)CCOCC1`: -8.5%. Turning to `COc1ccccc1C(=O)Oc1ccc(C)c(C)c1`, the displacement is 1.8%. For the compound `Nn1c(SCC(=O)c2ccc(Cl)cc2)nc2ccccc2c1=O`, the displacement came out at 0.4%. The same measure for `O=C(O)COc1c(Cl)cc(/C=C2\C(=O)NC(=O)N(c3ccc(F)cc3)C2=O)cc1Cl`: 8.1%; for `COc1ccc(NC(=S)NC(NC(=O)CC(C)C)C(Cl)(Cl)Cl)cc1OC` (stereo unspecified): -6.9%; for `CN(c1ccc(C(=O)Nc2cc(Cl)ccc2Cl)cc1)S(=O)(=O)c1ccccc1`: 5.8%. For the compound `O=S(=O)(NOCc1ccccc1)c1ccccc1`, the displacement was 2.2%. The same measure for `O=c1c(C2NCCC3(O)CCCCC23)coc2ccc(Cl)cc12` (stereo unspecified): -4.7%.

Regarding `COc1cc(/C=C2\SC(=S)N(C(CCC(=O)O)C(=O)O)C2=O)ccc1O` (stereo unspecified), the displacement turned out to be 6.4%. The same measure for `CCSC1=C(C#N)C(c2cccc3ccccc23)CC(=O)N1` (stereo unspecified): 0%; for `c1cc(Nc2ncnc3sc4c(c23)CCC4)ccn1`: -12.6%. Take `CCC(OC(=O)/C=C/c1ccco1)C(=O)Nc1ccc(S(N)(=O)=O)cc1` (stereo unspecified): the displacement stood at 14%. In the case of `COc1ccc(C(=O)CCNc2ccc(C)cc2)cc1` it was -8.1%; in that of `Cc1[nH]n(-c2ccccc2)c(=O)c1/C=N/N(C)C`, 6.3%.
